In the RNAGym collection of RNA variant scans (doi:10.7554/elife.90254):
The source gives no read counts; variants with many changes may rest on few reads.

B1: OR4K15 (parent)
chain: GUUAACGGUCAUAGGCCAUGGAAACUAGGAGCACCAUUUCGCUGCCAGUGAAGAAAUGAACAAAGAAAAUCUGGGCCAGGCAGGCAUCAAAAGAAAUAGUCUUGCGCUCAACCAGAAAGUCUGUAAUCAUUUUAAGGGUA

Variants of: B1
Assay: self-cleavage, relative activity (ratio to wild type); higher = more cleavage; in vitro, sequencing; the parent is a self-cleaving ribozyme

Row | Variant | self-cleavage
1 | A94G A98G U102A A126G | 0.09
2 | A89G U97G A117G | 1.7
3 | A95G U102A U108C | 0.02
4 | A94G A117G U122C U124A | 0.76
5 | U100C U102C A110G | 0.18
6 | A95G U102C U120C A135G | 2.1
7 | A90G U108C U124A U127A U132C | 0
8 | A89G U103C A117G U122A A126G | 0.53
9 | A95G U100A G104A A126G | 0.03
10 | U102C A111G U122A U130C | 0.01
11 | U97C U130C G138C U139C | 0.18
12 | A89G A114G U130A | 0.23
13 | A96G U122C A126U | 1.25
14 | A82U U87C U102C U124C | 0.18
15 | A95G A114G U130C | 0.42
16 | A89C A90G U130C | 1.93
17 | A90G A95G U122C U131A | 1.96
18 | A92G U130C U133C | 1.6
19 | A94G A110G A114U A126G | 0.01
20 | A82U C105U A135U | 0.02
21 | A82G A111G U122C | 0
22 | A95G A98U A116G | 0.44
23 | A91G U103C A140G | 0.33
24 | A89G U97G U103A U124C | 0.14

Row | Variant | self-cleavage
25 | U87C C105U U120C | 0.02
26 | A86G A92G C107U | 0.01
27 | A96U A117G U122G | 2.4
28 | A89C A94G A96G U103A | 0.74
29 | A98G U108C G123A U133C | 0
30 | A90G U102C A110U A114G U122A | 0.3
31 | A86U A94U U132A | 1.64
32 | U100C U133C A134G A135G | 2.81
33 | A86G U100C A110U | 2.27
34 | A82G G83U A117G U130A | 0.07
35 | U87C U100G C112G | 0.02
36 | A95G A96G A125G | 0
37 | A98G U124C G136U | 0.35
38 | A98G U108C U130C | 0
39 | U97C U108C A118G | 0.01
40 | A98U A111G A116G U130C | 0
41 | A90G A111G A116G | 0.01
42 | G79U A125G A135G | 0.02
43 | A91U A110G U124C | 0.09
44 | A89C U100C A116G | 1.99
45 | A95G A110U A126G | 1.13
46 | A91U U124A U130C | 0.33
47 | A96G A98G C121A | 1.23
48 | A82G A114G U131A A140G | 0.04

Row | Variant | self-cleavage
49 | U103C A110C A118G | 0.04
50 | A90C A117G U122C | 1.77
51 | A91G A95C A135U A140G | 1.03
52 | U87C A89G A117G | 1.67
53 | A82G A98U C105U U122C | 0.08
54 | U87A U120C A135G | 1.39
55 | A91G A110G A140G | 0.14
56 | A78U A90G A92G G137U | 0.26
57 | C81U A116U A126G | 0.03
58 | A82U A95G U100C | 1.2
59 | A86G U102A U127A | 0.45
60 | A94G U103C A126G | 0.05
61 | U87C A92U A111G | 0.01
62 | U87C A118G G136A | 1.22
63 | A91U U120C U122A | 2.37
64 | A95G U102C A129G U132G | 2.39
65 | A90G A117U A118G | 0.16
66 | U97C U102A U120G | 0.47
67 | U102C U127C U130C | 1.14
68 | A86U U87A U100C | 2.14
69 | C85U A91U U124A | 0.53
70 | A96G A117G U124C | 1.2
71 | A86G A90G G137U | 0.87
72 | A89C U124A A140G | 0.53

Row | Variant | self-cleavage
73 | G80A U103C G106C A114G | 0
74 | U102C A117G A140G | 2.74
75 | U102C A117G U139C | 2.56
76 | A90G U97C U131C A135G | 0.15
77 | A78U A125G A140G | 0.03
78 | A82G A91C U127G | 0.6
79 | A91G A114U U131C | 0
80 | U102C A116G A117G A126G | 0.7
81 | A86C A92G U108C U122G | 0.02
82 | U97C U102A U103C | 0.04
83 | A90G A114U U127A | 0.04
84 | A94G U102C A110G | 0.18
85 | U97C U122C U124G A129G | 0.67
86 | A82G G83A U100C | 0.28
87 | U87C A117G U122A | 1.09
88 | A89C A96G C101U A118G U130C | 0.11
89 | U100A U102C A126G | 1.14
90 | A92G A94G U103C | 1.18
91 | A86G A91G A129U A140U | 0.07
92 | A82G A94U A98U | 1.68
93 | A89G U100C U132C A134C | 2.23
94 | U97G U100C U132C | 2.42
95 | A89U A111G A116U A135G | 0
96 | A94G U102C C105U U130C | 0.41

Row | Variant | self-cleavage
97 | A92C A95G C105A | 0.02
98 | A78U A96U U102C A111U A114G | 0
99 | A91G A111G U132C | 0.01
100 | A89G A96G U122C | 1.22
101 | U87C A89U A91G A96G | 1.52
102 | U100A C128U A134G | 0.04
103 | A94G U100G C105A A135U | 0.01
104 | A95G U102C U108C | 0.01
105 | G80A A92G U132C | 0.12
106 | U87C A89G G123A | 0.69
107 | C88A A116U U139A | 0.35
108 | U102C A117C U120C | 0.78
109 | A78U A94G U124C | 0.15
110 | U100C A117G A129G | 2.42
111 | A82U A95G A118G U120C | 0.02
112 | A91G U102C U103C A116G | 0.06
113 | A91G C128A U132C | 0.37
114 | A78U U103C U127C | 0.01
115 | G80C A89G U108C | 0.08
116 | A95G A116G A118G | 0.52
117 | U97C C109A A135G | 0.11
118 | A90U A92G U100C | 2.14
119 | U87C A90G A111G | 0.01
120 | A78U A95G A129G | 0.31

Row | Variant | self-cleavage
121 | A82U U100C U108G | 0.01
122 | A90G A96G U102C | 1.9
123 | A82U A86U A89U A114G A116G | 0.05
124 | A91G A92G U122C | 1.08
125 | U87C A89G C105U | 0.02
126 | A91G A111U U122G | 0.05
127 | A90G U108C A110G | 0.01
128 | U87A A114C U122C | 0
129 | A82U G84A A98U A110U | 0.93
130 | U87A A110G U130C | 0.12
131 | U87A A110G U130A | 0.05
132 | U102C C113U A117G | 0.5
133 | A92G U127C U131C | 1.52
134 | A90C U102C U103C | 0.19
135 | A94G A134G A135G | 1.51
136 | A91G A98G A114G U120C U131C | 0.01
137 | A78U A95G C128A | 0.49
138 | A86U A116C U122A | 0.06
139 | G83A A91G U102C | 0.25
140 | A86G C105U U108C | 0.01
141 | G80A A94G U108G | 0.01
142 | A82G A92G A126C | 0.27
143 | A94G A98G U122G A126G | 1
144 | A91G U130C U131C | 0.54

Row | Variant | self-cleavage
145 | A95G C105G A110G | 0.02
146 | A82G U102C A140G | 0.93
147 | U100C U103G C105G U131C | 0
148 | U97G A98G U130C | 1
149 | U102C A118G U127C U131C | 1.56
150 | U100A G104A A116U | 0
151 | G79A U100C U103A A140C | 0.04
152 | A91G A110G U131C | 0.08
153 | A96G U108A G119U | 0
154 | A92G A118G U122C U133A | 0.79
155 | A94U A114U U139C | 0.11
156 | U100C A129G A135C | 2.09
157 | U87C A126G U127C | 0.43
158 | A91G A95G A140C | 1.58
159 | U87C A92G A96G | 1.88
160 | A82G U120C U131C | 0.16
161 | A94G A111G A117G | 0.02
162 | U87C A116U U130C U139C | 0.06
163 | A94G A96G U97A U108C | 0.03
164 | U87C A90G U122C U131C | 0.07
165 | A94G C105U A140G | 0.33
166 | A95G A126G G138A | 1.17
167 | U100G A118G U122A | 2.23
